The record followed here is the supplement of paper PMC11055344.

MIC of nasopharyngeal S. pneumoniae isolates by broth microdilution (range and time not stated); higher = less susceptible. No active / inactive call per row; the paper counts penicillin above 0.06 and amoxicillin above 0.5 mg/L as non-susceptible (EUCAST). The lowest value, 0.01, is taken as the floor ('<='); the source prints it plain. Penicillin G is assumed for 'penicillin'. Isolates are numbered anew. PBP alleles are the type numbers of penicillin-binding proteins 1a, 2b and 2x; equal numbers mean equal sequences.

Compound in test [1]: CC1(C)S[C@@H]2[C@H](NC(=O)Cc3ccccc3)C(=O)N2[C@H]1C(=O)O [penicillin G]
As to the kind of experiment: Broth microdilution. (In general: In broth dilution the organism is exposed to a series of concentrations in liquid medium.)

Compound in test [2]: CC1(C)S[C@@H]2[C@H](NC(=O)[C@H](N)c3ccc(O)cc3)C(=O)N2[C@H]1C(=O)O [amoxicillin]
Put plainly: Broth microdilution.

With “Streptococcus pneumoniae isolate 313 (PBP alleles 1a 2b 2x: 2_10_2, serotype: 10B)”, the minimal inhibitory concentration (MIC) in test [1] and in test [2] was 0.03 µg/mL throughout.
For the test system “Streptococcus pneumoniae isolate 314 (PBP alleles 1a 2b 2x: 2_6_0, serotype: 11A)”, the minimal inhibitory concentration (MIC) in test [1] and in test [2] was ≤ 0.01 µg/mL in each case.
For the test system “Streptococcus pneumoniae isolate 315 (PBP alleles 1a 2b 2x: 2_0_2, serotype: 21)”, the MIC in test [1] was 0.03 µg/mL; in test [2], ≤ 0.01 µg/mL.
On to “Streptococcus pneumoniae isolate 316 (PBP alleles 1a 2b 2x: 2_6_0, serotype: 11A)”, for which the MIC in test [1] and in test [2] was ≤ 0.01 µg/mL throughout.
Regarding “Streptococcus pneumoniae isolate 317 (PBP alleles 1a 2b 2x: 2_0_6, serotype: 23A)”, the minimum inhibitory concentration (MIC) in test [1] and in test [2] was 0.03 µg/mL throughout.
As for “Streptococcus pneumoniae isolate 318 (PBP alleles 1a 2b 2x: 1_0_0, serotype: 15B/C)”, the minimum inhibitory concentration (MIC) in test [1] was 0.03 µg/mL; in test [2], ≤ 0.01 µg/mL.
On to “Streptococcus pneumoniae isolate 319 (PBP alleles 1a 2b 2x: 0_0_2, serotype: 10A)”, for which the MIC in test [1] and in test [2] was ≤ 0.01 µg/mL each time.
As to “Streptococcus pneumoniae isolate 320 (PBP alleles 1a 2b 2x: 24_27_77, serotype: 15A)”, the minimum inhibitory concentration (MIC) in test [1] is 0.25 µg/mL; in test [2], 0.125 µg/mL.
On to “Streptococcus pneumoniae isolate 321 (PBP alleles 1a 2b 2x: 2_6_0, serotype: 11A)”, for which the MIC in test [1] and in test [2] was ≤ 0.01 µg/mL throughout.
For “Streptococcus pneumoniae isolate 322 (PBP alleles 1a 2b 2x: 0_0_2, serotype: 15B/C)”, the minimal inhibitory concentration (MIC) in test [1] is 0.03 µg/mL; in test [2], ≤ 0.01 µg/mL.
For “Streptococcus pneumoniae isolate 323 (PBP alleles 1a 2b 2x: 2_0_2, serotype: 15B/C)”, in that order: 0.03 µg/mL and ≤ 0.01 µg/mL.
For “Streptococcus pneumoniae isolate 324 (PBP alleles 1a 2b 2x: 0_New_3, serotype: 35F)”, in that order: 0.03 µg/mL and ≤ 0.01 µg/mL.
In the same order, the values of “Streptococcus pneumoniae isolate 325 (PBP alleles 1a 2b 2x: 0_0_0, serotype: 15B/C)” are 0.03 µg/mL and 0.03 µg/mL.
Take “Streptococcus pneumoniae isolate 326 (PBP alleles 1a 2b 2x: 12_0_0, serotype: 31)”: the figures for the minimal inhibitory concentration (MIC) in test [1] and in test [2] were 0.03 µg/mL and ≤ 0.01 µg/mL, respectively.
For the test system “Streptococcus pneumoniae isolate 327 (PBP alleles 1a 2b 2x: 0_1_1, serotype: 23B1)”, the minimum inhibitory concentration (MIC) in test [1] is 0.125 µg/mL; in test [2] it was 0.06 µg/mL.
For “Streptococcus pneumoniae isolate 328 (PBP alleles 1a 2b 2x: 3_6_5, serotype: 8)”, in that order: ≤ 0.01 µg/mL and ≤ 0.01 µg/mL.
In the same order, the values of “Streptococcus pneumoniae isolate 329 (PBP alleles 1a 2b 2x: 78_0_0, serotype: Serogroup 24)” are 0.03 µg/mL and ≤ 0.01 µg/mL.
As to “Streptococcus pneumoniae isolate 330 (PBP alleles 1a 2b 2x: 0_0_2, serotype: 35D)”, the MIC in test [1] and in test [2] was ≤ 0.01 µg/mL each time.
For “Streptococcus pneumoniae isolate 331 (PBP alleles 1a 2b 2x: 2_0_2, serotype: 15B/C)”, the MIC in test [1] is 0.03 µg/mL; in test [2], ≤ 0.01 µg/mL.
In the same order, the values of “Streptococcus pneumoniae isolate 332 (PBP alleles 1a 2b 2x: 11_0_172, serotype: 17F)” are 0.03 µg/mL and ≤ 0.01 µg/mL.
For “Streptococcus pneumoniae isolate 333 (PBP alleles 1a 2b 2x: 0_0_0, serotype: 23B)”, in that order: 0.03 µg/mL and ≤ 0.01 µg/mL.
For “Streptococcus pneumoniae isolate 334 (PBP alleles 1a 2b 2x: 7_67_1, serotype: 23B1)”, in that order: 0.25 µg/mL and 0.06 µg/mL.
As for “Streptococcus pneumoniae isolate 335 (PBP alleles 1a 2b 2x: 0_0_3, serotype: 33F)”, the MIC in test [1] and in test [2] was 0.03 µg/mL in each case.
In the case of “Streptococcus pneumoniae isolate 336 (PBP alleles 1a 2b 2x: 2_0_6, serotype: 23A)”, the MIC in test [1] and in test [2] was ≤ 0.01 µg/mL throughout.
As for “Streptococcus pneumoniae isolate 337 (PBP alleles 1a 2b 2x: 0_1_1, serotype: 23B1)”, the minimum inhibitory concentration (MIC) in test [1] came to 0.125 µg/mL; in test [2], 0.03 µg/mL.
For “Streptococcus pneumoniae isolate 338 (PBP alleles 1a 2b 2x: 7_1_1, serotype: 23B1)”, in that order: 0.25 µg/mL and 0.06 µg/mL.
Turning to “Streptococcus pneumoniae isolate 339 (PBP alleles 1a 2b 2x: 2_0_6, serotype: 23A)”, the MIC in test [1] is 0.03 µg/mL; in test [2], ≤ 0.01 µg/mL.
In the same order, the values of “Streptococcus pneumoniae isolate 340 (PBP alleles 1a 2b 2x: 0_1_1, serotype: 23B1)” are 0.125 µg/mL and 0.06 µg/mL.
For “Streptococcus pneumoniae isolate 341 (PBP alleles 1a 2b 2x: 0_0_53, serotype: 10A)”, in that order: 0.03 µg/mL and ≤ 0.01 µg/mL.
Regarding “Streptococcus pneumoniae isolate 342 (PBP alleles 1a 2b 2x: 0_0_3, serotype: 35F)”, the MIC in test [1] and in test [2] was ≤ 0.01 µg/mL in each case.
In the case of “Streptococcus pneumoniae isolate 343 (PBP alleles 1a 2b 2x: 1_0_0, serotype: 15B/C)”, the minimal inhibitory concentration (MIC) in test [1] is 0.03 µg/mL; in test [2] it was ≤ 0.01 µg/mL.
For “Streptococcus pneumoniae isolate 344 (PBP alleles 1a 2b 2x: New_60_New, serotype: Non-typeable/NCC2b)”, in that order: 0.5 µg/mL and 0.25 µg/mL.
For “Streptococcus pneumoniae isolate 345 (PBP alleles 1a 2b 2x: 34_32_43, serotype: 19F)”, in that order: 1 µg/mL and 1 µg/mL.
For “Streptococcus pneumoniae isolate 346 (PBP alleles 1a 2b 2x: New_New_New, serotype: 35F)”, in that order: 0.125 µg/mL and 0.06 µg/mL.
“Streptococcus pneumoniae isolate 347 (PBP alleles 1a 2b 2x: 0_0_3, serotype: 35F)”: the minimum inhibitory concentration (MIC) in test [1] is 0.03 µg/mL; in test [2], ≤ 0.01 µg/mL.
For “Streptococcus pneumoniae isolate 348 (PBP alleles 1a 2b 2x: 2_6_0, serotype: 11A)”, in that order: 0.03 µg/mL and ≤ 0.01 µg/mL.
For “Streptococcus pneumoniae isolate 349 (PBP alleles 1a 2b 2x: 0_0_0, serotype: 35B)”, the minimum inhibitory concentration (MIC) in test [1] and in test [2] was 0.03 µg/mL in each case.
As for “Streptococcus pneumoniae isolate 350 (PBP alleles 1a 2b 2x: 7_67_1, serotype: 23B1)”, the results for the minimum inhibitory concentration (MIC) in test [1] and in test [2] were 0.25 µg/mL and 0.03 µg/mL, respectively.
For “Streptococcus pneumoniae isolate 351 (PBP alleles 1a 2b 2x: 78_0_0, serotype: Serogroup 24)”, in that order: ≤ 0.01 µg/mL and ≤ 0.01 µg/mL.
In the same order, the values of “Streptococcus pneumoniae isolate 352 (PBP alleles 1a 2b 2x: 2_0_2, serotype: 15B/C)” are 0.03 µg/mL and ≤ 0.01 µg/mL.
For “Streptococcus pneumoniae isolate 353 (PBP alleles 1a 2b 2x: 0_0_0, serotype: 15B/C)”, in that order: 0.03 µg/mL and 0.03 µg/mL.
Consider “Streptococcus pneumoniae isolate 354 (PBP alleles 1a 2b 2x: 7_1_171, serotype: 23B1)”, for which the results for the MIC in test [1] and in test [2] were 0.25 µg/mL and 0.125 µg/mL, respectively.
For “Streptococcus pneumoniae isolate 355 (PBP alleles 1a 2b 2x: 2_0_2, serotype: 21)”, in that order: 0.03 µg/mL and ≤ 0.01 µg/mL.
For “Streptococcus pneumoniae isolate 356 (PBP alleles 1a 2b 2x: 7_1_New, serotype: 35B)”, in that order: 0.25 µg/mL and 0.25 µg/mL.
On to “Streptococcus pneumoniae isolate 357 (PBP alleles 1a 2b 2x: 2_0_2, serotype: 3)”, for which the minimum inhibitory concentration (MIC) in test [1] and in test [2] was ≤ 0.01 µg/mL throughout.
With “Streptococcus pneumoniae isolate 358 (PBP alleles 1a 2b 2x: 2_0_2, serotype: 15B/C)”, the minimal inhibitory concentration (MIC) in test [1] and in test [2] was ≤ 0.01 µg/mL throughout.
Consider “Streptococcus pneumoniae isolate 359 (PBP alleles 1a 2b 2x: 2_6_0, serotype: 11A)”, for which the minimum inhibitory concentration (MIC) in test [1] and in test [2] was ≤ 0.01 µg/mL each time.
For “Streptococcus pneumoniae isolate 360 (PBP alleles 1a 2b 2x: 1_0_0, serotype: 15A)”, the minimal inhibitory concentration (MIC) in test [1] is 0.03 µg/mL; in test [2], ≤ 0.01 µg/mL.
For “Streptococcus pneumoniae isolate 361 (PBP alleles 1a 2b 2x: 2_0_2, serotype: 15B/C)”, in that order: ≤ 0.01 µg/mL and ≤ 0.01 µg/mL.
In the same order, the values of “Streptococcus pneumoniae isolate 362 (PBP alleles 1a 2b 2x: 0_1_1, serotype: 23B1)” are 0.125 µg/mL and 0.06 µg/mL.

In general, MIC refers to the smallest concentration in the dilution series that meets the test's criterion for growth inhibition.
